Assay results taken from PubChem BioAssay AID1508624 (National Center for Advancing Translational Sciences (NCATS), 2021).
Hit rate of the full screen: of about 48,000 compounds, about 120 (0.25%) were called active. Another 4% or so got no clear call; they are omitted. The call rests on the fitted dose curve; in most records, active means well fitted activation curve with a large enough effect; inconclusive means small, poorly fitted or top-dose-only effect, or another doubt; inactive means no such curve, though single readings can be large or run the other way. This is one part of the list.

test: Primary qHTS for Identification of Small Molecule Activators of Huntingtin-Antisense Promoter Activity; conditions: HEK293 HTT-AS promoter firefly luciferase reporter, 24 h; series mostly up to 57.5 µM; activity change, positive = activation: at the top concentration; further: nearly all actives have a fitted effect of over 55% in size
Method in brief: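 HEK293 luciferase promoter-reporter cells (2,500/well) plated 24 h, then compounds added at up to 57.5 uM final for 24 h at 37 °C. Firefly luminescence by Dual-Glo, normalized to vehicle (0%) and zero RLU (-100%).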

Activity change, positive = activation, inactive:
CCC(=O)N1CCc2cc(CNC(=O)Nc3cc(Cl)ccc3C(=O)OC)ccc21 -9.58%, COc1ccccc1CN1CCC(CNC(=O)c2cnn(-c3ccc(C)c(C)c3)c2C2CCN(C(=O)OC(C)(C)C)CC2)CC1 -23.5%, CCCN(CCC)CCNC(=O)c1cc(-c2ccc(Br)s2)nc2ccccc12 -22.5%, Brc1ccc2nc(-c3ccccc3)c(Nc3ccc4c(c3)OCO4)n2c1 -2.48%, COc1ccccc1NC(=O)c1cc(C2CC2)nc2c1c(C)nn2-c1ccc(C)cc1 -12.2%, CC(C)CCN(Cc1ccco1)C(=O)Cn1ncc2c([nH]c3ccccc32)c1=O -38.9%, O=c1c(N2CCc3ccccc3C2)csc2ccc(Br)cc12 22.3%, COc1ccccc1Cc1nc2ccccc2nc1SCC(=O)N1CCC(C)CC1 -42.4%, CCOC(=O)c1cc(-c2ccccc2)n(CCCC(=O)Nc2cc(C)ccc2OC)c1C -24.9%, Cc1cccc(C(=O)Nc2ccc(N3CCN(c4ccc(F)cc4)CC3)c(C(=O)O)c2)c1 -4.69%, Cc1ccc2nc(SCC(=O)Nc3ccc(C#N)cc3)[nH]c2c1 -11.2%, Cc1c(C(=O)N2CCC(C)CC2)c(S(=O)(=O)N2CCN(c3cccc(Cl)c3)CC2)c(C)n1C -16.7%, COc1ccc(OC)c(NC(=O)CCc2nc(-c3ccc(C)cc3)no2)c1 -14%, COc1ccc(S(=O)(=O)c2cn(Cc3ccccc3)c3cc(F)c(F)cc3c2=O)cc1 0%, CN1C(=O)c2[nH]nc(-c3ccc(F)cc3)c2C1c1ccccn1 (stereo not given) -9.2%, CCOc1ccc(C(=O)NCc2ccc3c(c2)CCN3C(=O)c2ccc(C)cc2)cc1OCC -31%, COc1ccc(Nc2cc(C(=O)NCc3ccccc3)c3ccccc3n2)cc1OC 7.23%, O=c1c(S(=O)(=O)c2ccc(Cl)cc2)cn(Cc2ccc(F)cc2)c2ccc(F)cc12 -2.63%, COc1ccccc1NC(=O)c1cc(S(=O)(=O)N2CCc3ccccc32)ccc1F -30.1%, COc1ccc(NC(=O)c2cc3c(=O)n(Cc4cccnc4)ccc3nc2C)cc1Cl -4.29%, C=Cc1ccc(Cn2c(=O)cc(C)c3c(C)nn(C)c32)cc1 -22.1%, Cc1cccc(N2CCN(c3c4c(nc5nncn35)CCC4)CC2)c1C -10.4%, COc1cc(-c2nnc(SCC(=O)Oc3ccccc3Cl)o2)cc(OC)c1OC -5.81%, O=[N+]([O-])c1nccn1CO[C@@H](CO)[C@H](O)CO -8.15%, COc1ccc(S(=O)(=O)c2cn(Cc3ccccc3)c3ccc(OC)cc3c2=O)cc1 -23.1%, CN(C)c1ccc(C(CNS(=O)(=O)c2ccc(F)cc2)N2CCc3ccccc32)cc1 (stereo not given) -9.25%, COc1ccc(CNC(=O)CN2C(=O)COc3ccc(S(=O)(=O)N4CCOCC4)cc32)cc1 -13.1%, CCOc1ccc(/C=C/c2nc(C#N)c(N3CCN(c4ccccc4)CC3)o2)cc1 -8.87%, CCOCN(C(=O)Cn1cnc2cc(C)c(C)cc21)c1c(C)cccc1CC -36.7%, CCOc1ccc(N(CC)S(=O)(=O)N2CCCC(C(=O)NCCc3ccccc3OC)C2)cc1 (stereo not given) -35.1%, CC1CCCCN1C(=O)CSc1nnc(-c2ccccc2Cl)o1 (stereo not given) 18%, COc1ccccc1CNC(=O)Cn1c(=O)ccc2cc(S(=O)(=O)N3CCCC3)ccc21 -3.92%, Cc1cccc(Oc2coc3cc(OCC(=O)NC4CCCCC4)ccc3c2=O)c1 -33.8%, COc1ccc(-c2cn3nc(N4CCC(C(=O)Nc5ccc(C)cc5)CC4)sc3n2)cc1 9.15%, O=C(Nc1ccc(C(=O)N2CCN(c3ccc(Cl)cc3)CC2)cc1)c1nsc2ccccc12 -71.4%, Cc1ccc2oc(-c3cc(NC(=O)c4cccs4)cc(C)c3O)nc2c1 3.89%, COc1ccc(Br)cc1CNC(=O)C1COc2ccccc2C1 (stereo not given) 11.9%, Fc1ccc(Nc2nc(Nc3ccc(F)cc3)nc(N3CCOCC3)n2)cc1 -17.2%, CCCCn1c(SCC(=O)Nc2ccc(F)cc2)nc2c(sc3ccccc32)c1=O -1.67%, C[C@H](NC(CCc1ccccc1)C(=O)O)C(=O)N1CCC[C@H]1C(=O)O (stereo not given in full) -18.4%, CC(C)c1ccc(NC(=O)Cn2nnc(C(=O)NCc3cccs3)c2N)cc1 -8.86%, CCOc1ccccc1N(CC(=O)Nc1ccc(OC)c(Cl)c1)S(=O)(=O)c1ccccc1 -29.9%, O=C(CSc1nnc(-c2ccc(Br)cc2)n1-c1ccccc1)c1ccccc1 0.416%, Cc1ccc2oc3c(c(=O)c2c1)C(c1ccc(OCC(N)=O)cc1)N(Cc1ccc2c(c1)OCO2)C3=O (stereo not given) -5.14%, COc1ccc(NC(=O)C(=O)NCC2(c3ccccc3)CCCC2)c(OC)c1 -12.1%, CCOc1ccc(-c2cc(C(=O)N3CCN(c4cccc(C(F)(F)F)c4)CC3)c3ccccc3n2)cc1 26%, COc1ccc(C(=O)NCC(c2ccc3c(c2)OCO3)N2CCN(c3ccc(F)cc3)CC2)cc1 (stereo not given) -35.6%, Cc1ccc(N(CC(C)C)S(=O)(=O)c2nnc(NC(=O)c3cccs3)s2)cc1 -21.4%, CCOc1ccc2oc(=O)cc(CN3CCN(c4ccc(Cl)cc4)CC3)c2c1 -22.2%, CC(=O)N1CCc2cc(Br)cc(S(=O)(=O)CCC(=O)Nc3ccc(C)cc3Cl)c21 -13.1%, CCc1c(C)c2ccc(O)c(CN3CCN(c4ccccc4)CC3)c2oc1=O -11.8%, CCOC(=O)c1c(NC(=O)COc2ccc(Cl)cc2C)sc(C(C)=O)c1C -4.78% [at 11.5 µM, percent change from vehicle, -100% = no light], CCc1cccc(C)c1NC(=O)CN(C)S(=O)(=O)c1cccc2nsnc12 4.6%, Cc1ccc(N2CCN(c3nc4c(S(=O)(=O)c5ccc(C)c(C)c5)nnn4c4ccccc34)CC2)c(C)c1 -7.99%, Cc1c(C(=O)N(Cc2ccc(N(C)C)cc2)CC2CCCO2)oc2ccc(Br)cc12 (stereo not given) -11.3%, Cc1ccc(S(=O)(=O)c2cn(C)c3cc(N4CCCCC4)c(F)cc3c2=O)cc1 -12.8%, COc1ccc(C)cc1NC(=O)N1CCC(CN2CCC(C)CC2)CC1 -6.18%, Cc1ccc(-n2c(SCC(N)=O)nc3c([nH]c4ccccc43)c2=O)cc1 -24.9%, O=C(c1ccc(CS(=O)(=O)c2c(Cl)cccc2Cl)o1)N1CCN(c2ccccc2)CC1 -41.7%, Cc1cncn1CCc1nc2c3ccccc3nc(SCC(=O)Nc3ccccc3F)n2n1 -0.821%
